Reference: the supplement of paper PMC8813932
Where a name gives a salt, the structure may show the parent alone. ± gives the standard deviation of the averaged measurements. Some of the results follow. Many values rest on one well or one pass, so single values are uncertain.

Legend:
Experiment in all cases: log2 surviving fraction relative to plate median (drug vs vehicle, or drug+dl922-947 vs dl922-947 alone); ovarian cancer lines: OVCAR4 is platinum-sensitive while Ov4Cis resists cisplatin and Ov4Carbo carboplatin; higher = more cell survival
Conditions in all cases: compound concentration: 10 uM, 192 h
OVCAR4 = tested on: OVCAR4
Ov4Carbo = tested on: Ov4Carbo
Ov4Cis = tested on: Ov4Cis
[1] = dl922-947 oncolytic adenovirus co-treatment: MOI 10
[2] = dl922-947 oncolytic adenovirus co-treatment: none

SMILES | log2 surviving fraction (OVCAR4; [1]) | log2 surviving fraction (OVCAR4; [2]) | log2 surviving fraction (Ov4Carbo; [1]) | log2 surviving fraction (Ov4Carbo; [2]) | log2 surviving fraction (Ov4Cis; [1]) | log2 surviving fraction (Ov4Cis; [2])
CC(C)/N=c1\cc2n(-c3ccc(Cl)cc3)c3ccccc3nc-2cc1Nc1ccc(Cl)cc1 [Clofazimine] | 0.179 ± 0.36 | -1.17 ± 1.3 | -1.44 | -1.13 | 0.0856 | -1.48
C=C1CC[C@H](O)C/C1=C/C=C1\CCC[C@]2(C)[C@@H]([C@H](C)/C=C/[C@H](C)C(C)C)CC[C@@H]12 [Vitamin D2] | 0.509 ± 0.49 | 0.19 ± 0.47 | -0.699 | 0.733 | 0.338 | -0.156
Cc1ncc(CO)c(CO)c1O [Pyridoxine hydrochloride] | 0.399 ± 0.6 | -0.141 ± 0.086 | -0.241 | 0.226 | 0.372 | -0.0611
CCOC(=O)c1ccc(N)cc1 [Benzocaine] | -0.767 ± 0.33 | -0.0487 ± 0.29 | 0.191 | -0.224 | 0.675 | -0.778
NCC(O)c1ccc(O)cc1 (racemic) [(+,-)-Octopamine HCl] | -0.497 ± 0.43 | -0.215 ± 0.059 | 0.449 | 0.312 | 0.234 | -0.235
Cc1cccc([C@H](C)c2c[nH]cn2)c1C [Dexmedetomidine] | 1.46 ± 0.33 | -0.0363 ± 0.16 | -0.412 | -3.65 | 0.605 | -0.134
CN1C2=CC(=O)/C(=N\NC(N)=O)C=C2CC1S(=O)(=O)O (stereo unspecified) [Carbazochrome sodium sulfonate] | 0.318 ± 0.66 | -0.203 ± 0.13 | 0.747 | 0.339 | -0.721 | 0.355
NCCS [Cysteamine HCl] | -0.462 ± 0.38 | 0.354 ± 0.35 | -0.055 | 0.0185 | -0.317 | 0.295
C[C@@H]1CCN(C(=O)CC#N)C[C@@H]1N(C)c1ncnc2[nH]ccc12 | 0.087 ± 0.94 | -0.0842 ± 0.94 | 1.48 | -0.344 | 0.309 | -0.141
Cc1ccc(-c2cc(C(F)(F)F)nn2-c2ccc(S(N)(=O)=O)cc2)cc1 [Celecoxib] | 1.7 ± 0.28 | 2.87 ± 3.1 | 1.93 | -0.711 | 1.38 | 1.46
COc1ccccc1N1CCN(CCCNc2cc(=O)n(C)c(=O)n2C)CC1 [Urapidil HCl] | -0.37 ± 0.12 | 0.0782 ± 0.8 | -0.451 | -0.126 | -0.815 | -0.491
Cn1ccnc1S [Methimazole (Tapazole, Northyx)] | -0.306 ± 1.3 | -0.337 ± 0.53 | -0.424 | 0.152 | -1.45 | -0.575
C=C1c2cccc(O)c2C(=O)C2=C(O)[C@]3(O)C(=O)C(C(N)=O)=C(O)[C@@H](N(C)C)[C@@H]3[C@@H](O)[C@H]12 [Methacycline hydrochloride (Physiomycine)] | 0.463 ± 0.73 | -0.64 ± 0.21 | 0.0429 | -0.238 | -0.528 | -1.08
CNCC[C@@H](Oc1ccccc1C)c1ccccc1 [Atomoxetine HCl] | -1.25 ± 0.94 | -0.191 ± 0.65 | -0.934 | -0.985 | -0.457 | -0.108
CCn1cc(C(=O)O)c(=O)c2cnc(N3CCCC3)nc21 [Piromidic Acid] | -0.289 ± 1.5 | -0.336 ± 0.34 | -0.387 | 0.368 | 0.119 | 0.0994
CCCS(=O)(=O)Nc1ccc(F)c(C(=O)c2c[nH]c3ncc(-c4ccc(Cl)cc4)cc23)c1F [Vemurafenib (PLX4032)] | 1.18 ± 0.72 | 2.52 ± 2.8 | 2.35 | -0.769 | 2.37 | 0.585

SMILES | log2 surviving fraction (OVCAR4; [1]) | log2 surviving fraction (OVCAR4; [2]) | log2 surviving fraction (Ov4Carbo; [1]) | log2 surviving fraction (Ov4Carbo; [2]) | log2 surviving fraction (Ov4Cis; [1]) | log2 surviving fraction (Ov4Cis; [2])
O=C(Oc1ccccc1C(=O)O)c1ccccc1O [Sasapyrine] | 0.146 ± 0.38 | -0.387 ± 0.94 | -0.051 | 0.125 | 0.633 | -0.405
Cc1c(OCC(F)(F)F)ccnc1C[S+]([O-])c1nc2ccccc2[nH]1 (stereo unspecified) [Lansoprazole] | -0.179 ± 0.84 | -0.649 ± 0.12 | -0.922 | -2.15 | -0.467 | -0.404
CN(C/C=C/C#CC(C)(C)C)Cc1cccc2ccccc12 [Terbinafine hydrochloride (Lamisil)] | 0.364 ± 0.11 | 0.426 ± 0.88 | 1.17 | 0.528 | 1.36 | 0.564
CC(C(=O)O)c1ccc2c(c1)CC(=O)c1ccccc1S2 (stereo unspecified) [Zaltoprofen] | -0.138 ± 0.27 | 0.426 ± 0.36 | 1.76 | 0.0928 | 0.285 | 0.539
CCNC(=O)CCC/C=C\C[C@@H]1[C@@H](/C=C/[C@@H](O)CCc2ccccc2)[C@H](O)C[C@@H]1O [Bimatoprost] | 0.795 ± 1.7 | 0.53 ± 0.59 | -0.771 | 0.116 | 0.58 | -0.101
CC1=C(/C=C/C(C)=C/C=C/C(C)=C/C(=O)O)C(C)(C)CCC1 [Tretinoin (Aberela)] | 0.239 ± 0.74 | -0.0516 ± 0.78 | 0.696 | -0.701 | 0.224 | 0.1
CC1CNc2c(cccc2S(=O)(=O)N[C@@H](CCCNC(=N)N)C(=O)N2CC[C@@H](C)C[C@@H]2C(=O)O)C1 (stereo partly specified) [Argatroban] | 0.845 ± 0.44 | 0.934 ± 0.22 | -0.741 | 0.198 | 1.02 | 0.584
CC12CC3CC(C)(C1)CC(N)(C3)C2 [Memantine HCl (Namenda)] | -1.11 ± 0.16 | -1.26 ± 0.21 | 1.33 | -0.4 | -0.787 | -1.49
CN1CCC(OC(c2ccccc2)c2ccccc2)CC1 [Diphenylpyraline HCl] | -0.776 ± 0.21 | 0.143 ± 0.044 | -0.513 | -0.293 | 0.371 | 0.442
C=C1/C(=C\C=C2/CCC[C@]3(C)[C@@H]([C@H](C)/C=C/[C@H](C)C(C)C)CC[C@@H]23)C[C@@H](O)C[C@@H]1O [Doxercalciferol (Hectorol)] | 0.146 ± 0.44 | -1.95 ± 1.1 | -0.48 | -2.13 | -0.103 | -0.782
CCCC(=O)[O-].[Na+] [Sodium butyrate] | -0.0391 ± 0.65 | 0.294 ± 0.23 | 0.706 | -0.349 | 0.0955 | -0.298
N#C[C@@H]1C[C@@H]2C[C@@H]2N1C(=O)[C@@H](N)C12CC3CC(CC(O)(C3)C1)C2 | 0.369 ± 1.1 | 0.45 ± 0.0093 | 0.0848 | 0.513 | -0.154 | 0.0291
CC(C)NC[C@@H](O)COc1ccc(CC(N)=O)cc1 [(R)-(+)-Atenolol] | 0.213 ± 0.52 | -0.0945 ± 0.33 | 0.562 | -0.0889 | -0.278 | 0.811
Cc1cc(O)ccc1Cl [Chlorocresol] | -0.202 ± 0.42 | 0.0685 ± 1.3 | -0.562 | -0.24 | 0.19 | -0.491
CN(C)CCC[C@@]1(c2ccc(F)cc2)OCc2cc(C#N)ccc21 [Escitalopram oxalate] | -0.223 ± 0.052 | -0.237 ± 0.78 | -0.519 | -0.982 | -0.302 | 0.884
